One experiment has as its target Omicron spike trimer (SARS-CoV-2).
The next experiment has as its target Delta spike trimer (SARS-CoV-2).

B1: Antibody 813 (bispecific antibody)
chain: EVQLVESGGGLVQPGGSLRLSCAASGFTFSPSWMGWFRQAPGKEREFVATINEYGGRNYADSVKGRFTISADNSKNTAYLQMNSLKPEDTAVYYCARVDRDFDYWGQGTLVTVSSGGGGS[human IgG1 Fc with C220S (EU numbers) not listed]GGGSGGGGSASEVQLVESGGGLVQPGGSLRLSCAASGSTFSINAMGWFRQAPGKEREFVAGITSSGGYTNYADSVKGRFTISADNSKNTAYLQMNSLKPEDTAVYYCAADGVPEYSDYASGPVWGQGTLVTVSS
Take B1: the figures for the IC50 with Omicron spike trimer and with Delta spike trimer were 9.04 nM and 8.8 nM, respectively.

As usually defined, the IC50 is the point on the concentration scale where inhibition reaches its midpoint. High values mean weaker potency, low ones greater potency.

(Values after patent US20230192818A1 (TWIST BIOSCIENCE, published 2023).)
